# Measurements as given in PubChem BioAssay AID1347073 (National Center for Advancing Translational Sciences (NCATS), 2019).
# Among all 45,000 compounds or so, about 200 (0.44%) were called active. Not shown: some 7% with an inconclusive outcome. The call rests on the fitted dose curve; in most records, active means well fitted activation curve with a large enough effect; inconclusive means small, poorly fitted or top-dose-only effect; inactive means no such curve, though single readings can be large or run the other way. The list shows a part of the results.
# Assay: qHTS of TDP-43 Inhibitors: NCGC Sytravon Library Screen; further: 0% is about no effect; nearly all actives have a fitted effect of over 55% in size
# Settings: yeast TDP-43 toxicity rescue, BacTiter-Glo growth, 24 h; series mostly up to 46.1 µM; growth rescue (activation): at the top concentration
# Procedure, shortened: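 TDP-43-expressing yeast, pregrown in raffinose, seeded at OD600 0.02 in galactose medium with compound for 24 hr at 30 deg C. Growth read by BacTiter-Glo luminescence, so rescue of toxicity appears as activation.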
Structure (SMILES),growth rescue (activation),Potency
O=C(Nc1nnc(-c2ccccc2F)s1)Nc1ccccc1F,inactive: -6.36%,
O=C(OC(C(=O)Nc1ccc(Cl)c(C(F)(F)F)c1)c1ccccc1)C1=COCCO1 (centres undefined),inactive: 13.4%,
Cc1cc(N2CCOCC2)nc2ccc(NC(=S)N3CCCCC3C)cc12 (centres undefined),inactive: 3.27%,
COc1ccc(N(CC(=O)NCc2ccncc2)S(=O)(=O)c2ccccc2[N+](=O)[O-])c(OC)c1,inactive: 8.9%,
N=C1CCCN1CC(=O)c1ccc(Br)cc1,inactive: 10.5%,
COc1ccc(CN(Cc2ccccn2)S(=O)(=O)c2ccc(-n3cnnn3)cc2)cc1,inactive: 32.4%,
CCCCN(C)CCNC(=O)c1cn(C)c(=O)c2c1c1ccccc1n2C,inactive: -7.75%,
CCOCCOC(=O)C(C)Sc1n[nH]c(=O)[nH]c1=O (centres undefined),inactive: -33.8%,
Cc1cccc(NCc2ccc(N(C)C)cc2)n1,inactive: -2.96%,
O=C(CCCN1C(=O)/C(=C/c2cccs2)SC1=S)Nc1cccc(O)c1,inactive: 0.938%,
Cc1ccc(-n2c(C)cc(C(=O)COC(=O)c3ccc[nH]c3=O)c2C)cc1C,inactive: -74.6%,
COC(=O)c1ccc(N2NC(=O)/C(=C/c3cc(OC)c(O)c(OC)c3)C2=O)cc1,inactive: -16.6%,
CCn1c(CC(=O)Nc2ccc(Cl)c(Cl)c2)nnc1SCc1ccc(Cl)cc1,inactive: 2.4%,
COc1cccc(/C=C/C(=O)Nc2ccc(N3CCOCC3)cc2)c1OC,inactive: 5.25%,
CN(C)S(=O)(=O)N1CCC(Oc2cccc(C(=O)NCCC3=CCCCC3)c2)CC1,inactive: -10.2%,
CCNC(=S)Nc1ccc2ncoc2c1,inactive: 4.98%,
N=c1c(C(=O)NCCN2CCOCC2)cc2c(=O)n3ccccc3nc2n1CCc1ccccc1,inactive: 1.76%,
CCCCc1ncc(CN2CCC(CC3CCCCO3)(C(=O)OCC)CC2)[nH]1 (centres undefined),inactive: 9.07%,
NNc1nnc2c3cc(F)ccc3n(CCc3ccccc3)c2n1,inactive: 32.6%,
COc1cc(CN2CCC(C(=O)NC(c3ccc(F)cc3)c3ncccc3C)CC2)cc(OC)c1 (centres undefined),inactive: 4.32%,
C1CCN(c2c3c(nc4nnnn24)CCCC3)CC1,inactive: -6.57%,
CC(C)(C)NC(=O)c1ccc(Cn2cc(C(F)(F)F)ccc2=O)cc1,inactive: -6.66%,

Structure (SMILES),growth rescue (activation),Potency
CCOC(=O)CN(C(=O)COc1ccc2c(C)cc(=O)oc2c1)c1ccc(OCC)cc1,inactive: 1.26%,
O=S(=O)(NCCn1cccc1)c1ccc2ccccc2c1,inactive: 14.6%,
Cc1cccc(OC(C)C(=O)Nc2ccccc2C(=O)N2CCCCC2)c1 (centres undefined),inactive: -2.29%,
CCOc1ccc(S(=O)(=O)N=C(c2ccccc2)N2CCOCC2)cc1,inactive: -0.534%,
Cc1ccc(NNC(=S)Nc2ccc(C(C)C)cc2)c(C)c1,inactive: 10%,
O=C(Cc1ccccc1)NN1CCCCC1,inactive: 12.5%,
Cc1cc(N2CCCC2)nc2ccccc12,inactive: -0.538%,
OCC1(Cc2cccc(F)c2)CCN(Cc2ccc3cccc(F)c3n2)CC1,inactive: -0.705%,
O=c1c2cc(Cl)ccc2oc2nc3n(c(=O)c12)CCCS3,inactive: -23%,
Cc1cccc(Cn2nc(C)cc2NC(=O)Cn2cc([N+](=O)[O-])cn2)c1,inactive: 17.5%,
Cc1nc(C(C)NC(=O)CCc2nnc(Cc3c[nH]c4ccccc34)o2)cs1 (centres undefined),inactive: 12.5%,
CCC(C)N1CCNCC1 (centres undefined),inactive: -15.7%,
CCc1ccccc1NC(=O)CN(C)C(=O)Cn1cc(C(F)(F)F)cc(Cl)c1=O,inactive: 0.44%,
COc1ccc(N=CC2=C(O)CC(c3ccccc3)CC2=O)c(OC)c1 (centres undefined),inactive: -10.7%,
CN(CCO)c1cc(N(C)CCO)c([N+](=O)[O-])cc1[N+](=O)[O-],inactive: -23.9%,
COc1cc(CN2CCNC(=O)C2CC(=O)NCCc2ncccc2C)cc(OC)c1 (centres undefined),inactive: -11%,
Cc1cc(C)cc(CN2C(=O)NC3(CCCCCC3)C2=O)c1,inactive: 21.7%,
COc1cccc(/C=C(/C(=O)OCC(=O)NCC2CCCO2)c2ccccc2)c1 (centres undefined),inactive: 9.79%,
N#Cc1ccc(NC(=O)Cn2cnc([N+](=O)[O-])c2)cc1,inactive: 2.74%,
Cc1[nH]c2ccccc2c1N=Nc1cc(C(=O)O)cc(C(=O)O)c1,inactive: -7.73%,
CCn1c(SCc2nc3ccccc3c(=O)[nH]2)nnc1C(C)NC(=O)c1ccccc1 (centres undefined),inactive: 8.16%,
CC1(C)C2([N+](=O)[O-])CN3CC1([N+](=O)[O-])CN(C2)C3C(O)C(O)C(O)CO (centres undefined),inactive: 2.48%,

Structure (SMILES),growth rescue (activation),Potency
Cc1cc(/C=C(\C#N)C(=O)O)c(C)n1C1CC1,inactive: -3.51%,
CCOC(=O)c1c(NC(=O)CNC2CCCCC2)sc(C)c1C,inactive: -12.6%,
O=C(COC(=O)CCC(=O)c1ccc(F)cc1)NC1CCCCC1,inactive: -1.7%,
O=C(CSc1nnc(NC(=O)c2c(F)cccc2F)s1)Nc1ccc(F)cc1,inactive: 19.1%,
O=c1cc(O)c2ccccc2[nH]1,inactive: -10.4%,
CC(C)(C)NC(=O)C(c1c[nH]c2ccccc12)N(C(=O)Cn1nnc(-c2ccc(Cl)cc2)n1)c1ccccc1F (centres undefined),inactive: -7.04%,
O=C(Nc1ccc(F)c(F)c1)C1CCCN(S(=O)(=O)c2cccc3nonc23)C1 (centres undefined),inactive: 0.873%,
COc1cc(/C=C/C(=O)OCC(=O)NCCN2C(=O)CSC2=O)ccc1OC(F)F,inactive: -8.44%,
CCN(CC)CCCCN1c2ccccc2Sc2ccccc21,inactive: 6.21%,
CN(C)S(=O)(=O)c1ccc(C(=O)OC2CCOC2=O)cc1 (centres undefined),inactive: 3.15%,
COC(=O)c1ccc(NC(=O)CSc2ccccc2)cc1,inactive: 24.3%,
Cc1nc2ccccn2c1-c1csc(Nc2cccc(C(=O)O)c2)n1,inactive: 5.79%,
CC(Nc1ncnc2ccccc12)c1ccccc1 (centres undefined),inactive: 3.72%,
CCOP(=O)(OCC)C(NC(=O)Nc1ccccc1)C(N)=O (centres undefined),inactive: 8.8%,
Cn1cnc([N+](=O)[O-])c1SCC(O)CCl (centres undefined),inactive: 12.1%,
COc1ccccc1C(=O)NC(=S)Nc1cc(C(=O)O)ccc1C,inactive: -1.61%,
COC(=O)c1ccc(CNC(=O)C(C)N=C2NS(=O)(=O)c3ccccc32)cc1 (centres undefined),inactive: 8.52%,
COc1ccc(NC(=O)CSc2nc(N)c3cc4c(nc3n2)CC(C)(C)OC4)cc1,inactive: -24%,
CCC/C(=N\NC(=O)c1ccc(CSc2nncn2C)cc1)c1ccccc1,inactive: -1.94%,
Cn1c(SCC(=O)N/N=C/c2cc([N+](=O)[O-])ccc2O)nnc1-c1ccccc1,inactive: 26.5%,
CC(=O)Oc1ccc(C(=O)Nc2ccccc2C(=O)N2CCCCC2)cc1,inactive: 11.8%,
Cc1cc(=O)n2nc(N3CCCC3C(=O)NCCCN3CC(C)CC(C)C3)sc2n1 (centres undefined),inactive: -8.43%,

Structure (SMILES),growth rescue (activation),Potency
CC1=C(C(=O)OCc2ccc(C)cc2)C(c2ccc(O)c([N+](=O)[O-])c2)NC(=O)N1 (centres undefined),inactive: 0.763%,
O=S(=O)(c1ccc(Cl)cc1)N1CCN(Cc2cccnc2)CC1,inactive: 3.79%,
Cc1ccc(N2C(=O)N(CC(=O)Nc3ccccc3C(F)(F)F)C(=O)C2C)cc1 (centres undefined),inactive: 25.2%,
CSc1ccc(/C=N/NC(=O)c2cccs2)cc1,inactive: 4.31%,
NC(=S)N/N=C1\CC(c2ccc3c(c2)OCCCO3)Oc2ccc(F)cc21 (centres undefined),inactive: 8.52%,
O=C(c1ccc(-c2cccc(C(F)(F)F)c2)o1)N1CCN(c2ccccc2)CC1,inactive: 21%,
COCCN1C=C(C(=O)OC)C(c2ccccc2C(F)(F)F)C(C(=O)OC)=C1,inactive: 44.5%,
CCN1CCN(c2cc(C)c3cc(NC(=S)N4CCCC4)ccc3n2)CC1,inactive: 4.28%,
Cc1cc(C)c(C#N)c(SCC(=O)Nc2ccccc2)n1,inactive: 0.609%,
CC(C)(C)NC(=O)NC(=O)CN1C(=O)NC(c2ccccc2)(c2ccccc2)C1=O,inactive: -0.702%,
COC(=O)N/N=C/c1ccc(OC(=O)/C=C/c2ccco2)cc1,inactive: -12.2%,
Cc1ccc(N/C=C(\C#N)c2ccc(OCCCF)cc2)cc1,inactive: 35.4%,
CSc1ccccc1OCc1cc(C(=O)N2CCNC(=O)C2)no1,inactive: 28%,
COc1ccccc1-n1cnnc1SCC(=O)NCC1CCCO1 (centres undefined),inactive: -9.45%,
CC(C)(C)c1ccc(OCC(=O)NNC(=O)c2cccnc2)cc1,inactive: -10.9%,
CSc1nc2ccccc2c(=O)n1C1CCCCC1,inactive: 9.02%,
CCCNc1nc(NCC)nc(OC)n1,inactive: -4.99%,
COc1ccc(-n2nc(C(=O)NCC(=O)NCCC3=CCCCC3)c3ccccc3c2=O)cc1OC,inactive: 9.51%,
NS(=O)(=O)c1ccc(NC(=O)COC(=O)c2ccc(S(=O)(=O)N3CCOCC3)cc2)cc1,inactive: -5.74%,
Cc1nc(-c2cccc(S(=O)(=O)N3CCCCC3)c2)cs1,inactive: 4.75%,
O=c1[nH]cc(N(CCO)CCO)c(=O)[nH]1,inactive: 9.95%,
Cn1c(Oc2ccncc2)nc2cc(-c3ccsc3)sc2c1=O,inactive: 0.981%,

Structure (SMILES),growth rescue (activation),Potency
COc1cc(/C=C/C(=O)Nc2ccncc2)cc(OC)c1OC,inactive: 3.35%,
COCCC(=O)N1CCCC(C(=O)c2ccc(Oc3ccccc3)cc2)C1 (centres undefined),inactive: 33.5%,
Cc1ccc(S(=O)(=O)N2CCCC(C(=O)Nc3ccc(C(=O)O)cc3)C2)cc1Cl (centres undefined),inactive: 0.401%,
CCN(CC(=O)Nc1ccc2c(c1)OCO2)S(=O)(=O)c1ccccc1,inactive: 19.3%,
CCc1nn(CC(=O)NCCCN(CC)CC)c(=O)c2cc3sc(C)cc3n12,,inactive
Nc1nc(Nc2cccc(Cl)c2)nc(NCc2ccco2)c1[N+](=O)[O-],inactive: 17.3%,
CCOc1ccc(N(CC(=O)NC2CCCCC2)C(=O)CCC(=O)Nc2nc(C)cs2)cc1,inactive: 10.8%,
O=C(CSc1nccc2ccccc12)N1CCN(Cc2ccc3c(c2)OCO3)CC1,inactive: -0.351%,
O=C1CC2(CCCC2)C(=O)N1CN1CCN(S(=O)(=O)c2ccc(F)cc2F)CC1,inactive: 12%,
Cc1ccc(/C=N/NC(=O)C(O)c2ccccc2)o1 (centres undefined),inactive: 9.49%,
C=CCN1C(=NC(=O)CCC(=O)O)SC2CS(=O)(=O)CC21 (centres undefined),inactive: -25.2%,
O=C(Nc1ccccc1N1CCCCC1)c1ccc(OC(F)F)cc1,inactive: 25.7%,
CCOc1nc(C)cc(C)c1S(=O)(=O)c1ccc(Cl)cc1,inactive: 9.97%,
O=C(NCCCN1CCOCC1)C(=O)NCC1CCCO1 (centres undefined),inactive: 8.03%,
O=C(CN1C(=O)c2ccccc2S1(=O)=O)NCCSCc1cccc(Cl)c1,inactive: -15.5%,
CC(C)Oc1cc(F)ccc1-c1cc(C(=O)NCc2cccnc2)[nH]n1,inactive: 19.8%,
O=C(C1CC1)N1CCN(S(=O)(=O)c2ccc3c(c2)OCCO3)CC1,inactive: 3.92%,
Cc1cccc(C(=O)Nc2nnc(SCC(=O)NC3CC3)s2)c1,inactive: 16.3%,
O=C(CN(C(=O)c1csnn1)c1cccc(C(F)(F)F)c1)NCc1ccc(F)cc1,inactive: 9.24%,
O=C(COc1ccccc1)Nc1ccccc1NS(=O)(=O)c1cccs1,inactive: 13.4%,
Cc1cc(C(=O)C(C)OC(=O)C2=NNC(=O)CC2)c(C)n1-c1ccc(OC(F)F)cc1 (centres undefined),inactive: 20.3%,
